PubChem BioAssay AID1240 (Sanford-Burnham Center for Chemical Genomics, 2008)
Out of some 50,000 compounds screened, about 800 (1.6%) showed an effect of 50% or more. Some of the results follow.

target: Bcl-2-like protein 10 (Homo sapiens) (UniProt Q9HD36); assay: TR3 peptide-Bcl-B binding displacers, biochemical primary FP assay, phenotype converters (AID 1240); conditions: GST-Bcl-B / FITC-TR3 peptide fluorescence polarization; stronger effect = higher value; compound at 3.75 mg/L;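 also: 0% = Bcl-B with tracer peptide and DMSO and 100% = tracer peptide lacking Bcl-B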
Chain of UniProt Q9HD36 (Q9HD36 whole entry, looked up): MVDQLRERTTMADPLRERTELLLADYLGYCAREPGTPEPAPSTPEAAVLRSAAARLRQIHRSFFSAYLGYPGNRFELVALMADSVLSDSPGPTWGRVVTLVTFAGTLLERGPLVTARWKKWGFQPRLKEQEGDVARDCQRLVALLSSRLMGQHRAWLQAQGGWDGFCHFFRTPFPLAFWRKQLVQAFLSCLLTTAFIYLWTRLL

With CC1=CC(C)(C)N(CN2C(=O)c3ccccc3C2=O)c2ccccc21 as the molecule, how does the displacement read?
The displacement was -4.7%.

How did the displacement turn out when CCCOc1ncnc2sc3c(c12)CCCC3 was run?
Its displacement is -3.9%.

O=C(Nc1ccc(-c2nc3ccccc3[nH]2)cc1)c1ccccc1[N+](=O)[O-] was tested. Which displacement did it give?
Its displacement is 15.9%.

For COc1ccc(CN(C(=S)Nc2ccccc2)C2CC(=O)N(c3ccc(F)cc3)C2=O)cc1 (stereo not given), which displacement is on record?
The displacement was -13.5%.

For CCOc1ccc(N2C(=O)CC(Cc3ccccc3)C2=O)cc1 (stereo not given), which displacement is on record?
The displacement was 9.5%.

How did the displacement turn out when CCOc1cc(/C=C2/C(=N)N3N=C(CC)SC3=NC2=O)ccc1OC(=O)c1cccc([N+](=O)[O-])c1 was run?
Its displacement is -2.3%.

With O=C(N/N=C/c1ccc(Br)cc1)c1cc(=O)[nH]c2ccccc12 as the molecule, how does the displacement read?
Its displacement is 32.1%.

Which displacement does the source give for CC(C)c1nnc(NC(=O)Nc2ccccc2)s1 here?
The displacement was 11.8%.

CCCc1c(O)nc(SCCN(CCC)CCC)n(-c2ccccc2)c1=O was tested. Which displacement did it give?
Its displacement is -12.7%.

With N#Cc1c(NC(=O)c2cnn3c(C(F)(F)F)cc(-c4ccccc4)nc23)sc2c1CCCC2 as the molecule, how does the displacement read?
Its displacement is -6.1%.

For COC(=O)C1=C(C)N=c2s/c(=C/c3cccnc3)c(=O)n2C1c1ccc(C(C)C)cc1 (stereo not given), which displacement is on record?
The displacement was 11.7%.

With Cc1cccc(N2C(=O)NC(=O)/C(=C/c3ccc(F)cc3)C2=O)c1 as the molecule, how does the displacement read?
The displacement was -15.5%.

How did the displacement turn out when CN(C)c1ccc(NS(=O)(=O)c2cccc([N+](=O)[O-])c2)cc1 was run?
The displacement was 5.4%.

For COc1ccc(CCNC(=O)C(=O)NCc2ccc(C)cc2)cc1OC, which displacement is on record?
Its displacement is 17.7%.

With COc1ccc(OCC(=O)Nc2c(C)cccc2C)cc1 as the molecule, how does the displacement read?
The displacement was 6.3%.

For CC(=O)N1c2ccccc2NC2=C(C(=O)CC(C)(C)C2)C1c1cccc(F)c1 (stereo not given), which displacement is on record?
The displacement was -6.6%.

How did the displacement turn out when CC(=O)OCc1cc(=O)n(C)c(=O)n1C was run?
The displacement was -9.3%.

Cc1ccc(NC(=O)CN(c2cccc(C(F)(F)F)c2)S(C)(=O)=O)cc1 was tested. Which displacement did it give?
Its displacement is -8.9%.

How did the displacement turn out when Brc1ccccc1NCc1ccncc1 was run?
The displacement was 10.8%.

Which displacement does the source give for CS(=O)(=O)c1ccc2nc(NS(=O)(=O)c3ccc(F)cc3)sc2c1 here?
Its displacement is -1.9%.

How did the displacement turn out when COc1ccc(N2CC(C(=O)N/N=C/c3ccc(F)cc3)CC2=O)cc1 (stereo not given) was run?
The displacement was -4.9%.

How did the displacement turn out when COc1ccc(C(NC(=O)C(c2ccccc2)c2ccccc2)NC(=O)C(c2ccccc2)c2ccccc2)cc1 was run?
Its displacement is 9.7%.

For Cc1ccc(/C(O)=C2\C(=O)C(=O)N(CCCC(=O)O)C2c2ccccc2F)cc1 (stereo not given), which displacement is on record?
Its displacement is -2.9%.

Which displacement does the source give for CCOc1ccccc1/C=C1\C(=O)NC(=O)N(c2ccc(Br)c(C)c2)C1=O here?
The displacement was -7.9%.

O=[N+]([O-])c1ccc(Oc2ccc(S(=O)(=O)N3CCOCC3)cc2)cc1 was tested. Which displacement did it give?
Its displacement is 4.5%.

How did the displacement turn out when Cc1sc(NC(=O)Cc2ccccc2)c(C(N)=O)c1C was run?
Its displacement is 11.2%.

How did the displacement turn out when COc1ccc(OC)c(/C=C/C(=O)c2c(-c3ccccc3)c3cc(Cl)ccc3[nH]c2=O)c1 was run?
Its displacement is -12.7%.

COc1cc(C2CC(=O)Nc3c2ccc2ccccc32)cc(Br)c1OC (stereo not given) was tested. Which displacement did it give?
The displacement was 7.1%.

Which displacement does the source give for O=c1oc2ccc3ccccc3c2cc1-c1ccc(I)cc1 here?
Its displacement is 5.1%.

How did the displacement turn out when Cc1cc(OCC(=O)Nc2ccccc2-c2ccccc2)ccc1Br was run?
The displacement was 5.4%.

With CCN1CCN(CC(O)COc2cc(C)c(Cl)c(C)c2)CC1 (stereo not given) as the molecule, how does the displacement read?
The displacement was -0.1%.

For COc1ccc(C(=O)/C=C/NCC(=O)c2ccccc2)cc1, which displacement is on record?
Its displacement is -15%.

How did the displacement turn out when O=C1c2cccc3cccc(c23)C(=O)N1CCCCO was run?
Its displacement is 6.6%.

With CN(C)Cc1c(O)ccc2[nH]cnc12 as the molecule, how does the displacement read?
The displacement was -12%.

Which displacement does the source give for COc1ccc(C2OCC3(CO2)SC2=NCN(C)CN2C3=O)cc1 (stereo not given) here?
Its displacement is -11.6%.

How did the displacement turn out when Cc1ccccc1NCc1nc2ccccc2n1Cc1ccccc1 was run?
The displacement was -1.6%.

Which displacement does the source give for Cc1ccc2oc(-c3cc(NC(=O)c4ccc5c(c4)OCCO5)ccc3O)nc2c1 here?
Its displacement is 7.4%.

With CCOC(=O)/C(C#N)=C1\C(Cl)=C(Cl)c2ccccc21 as the molecule, how does the displacement read?
Its displacement is 11.2%.

COC(=O)c1ccc(COc2ccc(-c3ccccc3)cc2)o1 was tested. Which displacement did it give?
Its displacement is 6.1%.

CC(C)(C)C(=O)/C=C/c1ccc(-n2nncc2C(C)(C)C)cc1 was tested. Which displacement did it give?
The displacement was -10.2%.

With O=C(Nc1nc(-c2ccccc2)c(-c2ccccc2)s1)c1ccc(S(=O)(=O)N2CCCC2)cc1 as the molecule, how does the displacement read?
Its displacement is 9.2%.

With CC(C)(C)c1ccc(S(=O)(=O)/N=C2\C=CC(=O)C(Br)=C2)cc1 as the molecule, how does the displacement read?
Its displacement is -8.3%.

Which displacement does the source give for COc1cc(/C=C2\SC(=S)N(C(C(=O)O)C(C)C)C2=O)ccc1O (stereo not given) here?
Its displacement is -126%.

With O=C(O)/C=C/c1cccc(NS(=O)(=O)c2cccs2)c1 as the molecule, how does the displacement read?
Its displacement is -13%.

Which displacement does the source give for Cc1cc(Cl)ccc1OCC(O)CN1CCN(c2ccccc2)CC1 (stereo not given) here?
The displacement was -3.7%.

With Cc1c(NC(=O)c2ccccc2N)cccc1C(=O)O as the molecule, how does the displacement read?
The displacement was 1.7%.

How did the displacement turn out when Cc1ccc2c(Cl)c(C(=O)N3CCc4ccccc4C3)sc2c1 was run?
The displacement was 8.5%.

For O=C(CCCOc1ccccc1)Nc1cccc(Br)c1, which displacement is on record?
Its displacement is -2.5%.

With CCC(Oc1ccccc1)C(=O)N1CCN(c2ccc(Cl)cc2)CC1 (stereo not given) as the molecule, how does the displacement read?
Its displacement is -1.6%.

For Cc1cc2ncn(CC(O)COc3ccc4ccccc4c3)c2cc1C (stereo not given), which displacement is on record?
Its displacement is 13.8%.

How did the displacement turn out when S=c1[nH]nc(-c2ccc(Cl)cc2)n1-c1ccc(Cl)cc1 was run?
Its displacement is -3.9%.

COc1ccc(C2/C(=C(/O)c3ccccc3)C(=O)C(=O)N2c2cccc([N+](=O)[O-])c2)cc1OC (stereo not given) was tested. Which displacement did it give?
The displacement was 3.3%.

Which displacement does the source give for c1ccc(CN=C2CCCc3ccccc3N2)cc1 here?
Its displacement is 4.9%.

Which displacement does the source give for CC1CN(c2nc(-c3ccc(Cl)cc3)nc3ccccc23)CC(C)O1 (stereo not given) here?
Its displacement is 5.9%.

With C=C(C)COc1ccc2ccc(=O)oc2c1 as the molecule, how does the displacement read?
Its displacement is 11.4%.

Which displacement does the source give for CCC(=O)N1c2ccccc2NC2=C(C(=O)CC(C)(C)C2)C1c1ccc([N+](=O)[O-])cc1 (stereo not given) here?
The displacement was 21.6%.

With COc1cc(C(=O)Nc2ccc(C(N)=O)cc2)cc(OC)c1OC as the molecule, how does the displacement read?
Its displacement is -4.2%.

With CC(=O)Nc1cccc(NS(=O)(=O)c2ccccc2)c1 as the molecule, how does the displacement read?
Its displacement is 9.1%.

For O=C(O)c1ccccc1-c1ccccc1C(=O)NCCc1ccccc1, which displacement is on record?
Its displacement is 7.8%.

Which displacement does the source give for Fc1cnc(NN=Cc2ccco2)nc1N1CCOCC1 here?
Its displacement is -13.1%.

With CC1=C(C(=O)OC2CCCC2)C(c2ccc(Cl)cc2)NC(=O)N1 (stereo not given) as the molecule, how does the displacement read?
Its displacement is 7.3%.

O=C1C2C3C=CC(C3=C3CCCCC3)C2C(=O)N1c1ccc(Cl)c(Cl)c1 (stereo not given) was tested. Which displacement did it give?
Its displacement is -18.7%.

Which displacement does the source give for Cc1cc(O)cc2c(=O)c3ccccc3sc12 here?
The displacement was 22.7%.

Which displacement does the source give for COc1ccc(OC)c(/C=C/C(=O)Nc2ccc(C)c(Cl)c2)c1 here?
The displacement was 11.8%.

With C=CCn1c(SCC(=O)c2ccc(Br)cc2)nc2sc3c(c2c1=O)CCN(C)C3 as the molecule, how does the displacement read?
The displacement was 18.5%.

Which displacement does the source give for COc1ccc(C(=O)NC(OCc2ccccc2)C(Cl)(Cl)Cl)cc1OC (stereo not given) here?
The displacement was -1.1%.

Which displacement does the source give for O=C(Nc1nc2ccccc2n1CCOc1ccccc1)c1ccccc1 here?
Its displacement is -5.1%.

With CN(C)c1ccc(/C=N/NC(=O)c2ccc(O)cc2O)cc1Br as the molecule, how does the displacement read?
The displacement was 13.1%.

COc1ccc(CCN=C(C)C2=C(O)COC2=O)cc1OC was tested. Which displacement did it give?
The displacement was 6.1%.

CCCc1cc(=O)oc2cc(OCc3ccccc3Cl)ccc12 was tested. Which displacement did it give?
Its displacement is 21.4%.
